{"source": "the supplement of paper PMC12632987", "binders": {"B1": {"name": "GBRAP_160_4296 (protein)", "chain": "SEKLEKHIKLIKETTKRTIELMKGESAEQRAAIVAGEWGALIYELSEDPSVSDETIDEFVKIRDEVVATILANPDLTDEELAALLEEAEKKMIEALKKSY"}, "B2": {"name": "GBRAP_139_3719 (protein)", "chain": "SAKEEAIEKAKEIVEKYKDDIEKLAEKLAELISTVDDETALEIARAAAEELKDYSWEEWEKLIEELSKKLKELGLDEDTVLAIEGEMEAVFAKHLMAKEA"}, "B3": {"name": "GBRAP_52_6109 (protein)", "chain": "MEAEAQAFVEEVLALVKAGRLEEAEALIRRKVAEWDDERLRVLGAALAARAREAAPEDLDAVWRLAEMIAEAMEAAGKDEVLADDLEASVAAALYERTLR"}, "B4": {"name": "GBRAP_52_6349 (protein)", "chain": "AREEARKIAEELVALKKAGKEEELKKRAEEIAKTWSEEEITLLFDVLAEMAKTASPEDAEAILEVAEILADALIEAGWDEFFASALLARVAAAVYENLQK"}, "B5": {"name": "GBRAP_26_5475 (protein)", "chain": "LEEIERETIEELAALLAELPDPDLAAAALAEATTIIIEAMERMEENKNDPEKLKEIVEEAVEEIERALRELGVPEEVRERLVEKAREGLEKAAEKILKES"}, "B6": {"name": "GBRAP_128_3327 (protein)", "chain": "MDEERLAEAKELIEAIVKADVETAKELTRELLRLMETLSDEERDLVVEWMEEELKKLDAEKLEAIADTIRELRPTLDPRTRLYANEIEVEALNLAEEKEE"}, "B7": {"name": "GBRAP_128_3594 (protein)", "chain": "SVEEVRAYVREALAAMKEADAETRREIADALMERLLTLSDEEQRAAFETIEELLPELSAEDLDILADALREHRPRFSPEGANLAADVEVEALNEREELEE"}, "B8": {"name": "GBRAP_128_3210 (protein)", "chain": "SVEEVKEEVRRLLERLSEADPEEAREIARELAELIRNSSVEEAEAALEVIEELAPELTEEQLDILMDAFIEAARETSDERSLVLLEIAIVLGSRILELEE"}, "B9": {"name": "GBRAP_160_3989 (protein)", "chain": "EEKKKELLKEIEEIFDETYELASGENPEERLTVVEVHMGEILLLLEESGIVSEETEEEIDKILDELVEKVKENPNMTDEELKELLDEALEKIKKIIESEK"}, "B10": {"name": "GBRAP_184_5028 (protein)", "chain": "TVLEEEIRAKDLAELEAALAALAARVAGSGADLVVSVSLENPTAEMVTTALAGLGAIKAAGNVARVTVGFEGELSEELREVALAAGDANGVRVVLPISDE"}, "B11": {"name": "GBRAP_160_4338 (protein)", "chain": "SPKTEEIIEFINEEFDETIELIEGESFEERKVIIEGTFGEILMYLSEDESISDETEDKVAEIFDETLATLDANPDLSLEEIKALINETRDKVIEIIKEEE"}, "B12": {"name": "GBRAP_52_6312 (protein)", "chain": "MHERMRELAEELLELMLAGDREGARALAREIVATLSEEELLLLAEELAELAEELDEEELEKAAELLFILEDEMEAAGVDERVIAEMLGIIITAIYKAEQK"}, "B13": {"name": "GBRAP_9_7182 (protein)", "chain": "TAEKKQKILENVKEEAELALEVTPEEKKPIIKEALDKLLEELEKLVADPNATLEEILEALEKGAKEIIELAKENLDKDTARQVEAILNTAILYAEEIVEE"}, "B14": {"name": "GBRAP_125_2970 (protein)", "chain": "MREELLEDLGLLARALGLSPEEVEELVELARRHSVRGALYALMAALGHDETAELVAQITEEEAEEVLRRVAAWIRAHPDATPEEVVAKLREELEAAIAAR"}, "B15": {"name": "GBRAP_160_4505 (protein)", "chain": "SEKYKEAAQVAKDAAKFIEEEKDTLTPEELAVVVAGEAGKVILTADELGVLSDEELDEFDKKSRELVEKIKTGNAEEAKKAVDEAIKMFKDLAKKLEAKA"}, "B16": {"name": "GBRAP_128_3265 (protein)", "chain": "ANPEIVAYAEAFVEKLIAADDEEAKKLADELMERLLTLSVEEVEQFVDVIKKNLDKLSVEKLDILADAAREHRDRFSPEKANLVADLAVEALNEAEEKEE"}, "B17": {"name": "GBRAP_160_4744 (protein)", "chain": "SEELKKVLKEINEIFEEGIALLEEVPKEEALTVVRGTMGEVIMTVMSSDAISDELEEKIGKIMDEAEKEAEANKDGSVEEFIKILKKAREEIEKLIKKEI"}, "B18": {"name": "GBRAP_57_6465 (protein)", "chain": "MTPLEKAAEHFEKAIELIKAGASEEEILAEVKKGLDHLDREDLLDILLLLDPSTRSDLSKEELKAKLLELIRRLLREEGREAALKALELMLGQVEMDLIE"}, "B19": {"name": "GBRAP_9_7109 (protein)", "chain": "LEELIEKFKEIVEEMKEELLKVLSEELHPLVDEKVEEILETLEELKKDPNTTKEEVLKTTLELLAKMKKELEAASTPEEAAGVRTIVATAEVEIEEAYEE"}}, "note": "The full ranking holds about 4,500 sequences; the median of “median log2 fold change of GCK-ALFA target abundance (FLAG IP / Myc IP barcode read proportion)” is about 0.078, and the lowest 2% start at about -0.6. Some of the results follow.", "data": [{"target": "GABARAP, O95166", "sequence (O95166 whole entry, the tested form may be a part)": "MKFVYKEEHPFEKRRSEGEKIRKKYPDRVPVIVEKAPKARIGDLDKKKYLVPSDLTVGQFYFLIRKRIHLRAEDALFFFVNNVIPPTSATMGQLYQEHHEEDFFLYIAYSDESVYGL", "assay": "median log2 fold change of GCK-ALFA target abundance (FLAG IP / Myc IP barcode read proportion) (log2 ratio); each designed protein is fused to an ALFA-tag nanobody in HEK293 cells to bring the named protein to FLAG-tagged glucokinase (GCK); Myc marks an untargeted standard; higher = target protein stabilised (more abundant)", "conditions": "target protein: 3xFLAG-MCP-GCK-ALFA reporter; HEK293 landing pad (RPLP)", "summary_of_the_method": "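Binders fused to an ALFA nanobody were recombined as a library into HEK293 landing-pad cells, which were induced with 2 μg mL^−1 doxycycline and then transfected to express a FLAG-tagged target and a Myc-tagged standard. After 48 h, circular RNA barcodes recovered by anti-FLAG and anti-Myc immunoprecipitation of lysates were reverse transcribed, amplified and sequenced. Each binder's target abundance is the median log2 ratio of FLAG to Myc barcode read proportions, from barcodes present at ≥10^−7 in both replicates, binders carrying ≥3 barcodes per replicate, a 10^−6 pseudocount and pooled replicates.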", "values": [{"binder": "B1", "median log2 fold change": 0.356}, {"binder": "B2", "median log2 fold change": -0.269}, {"binder": "B3", "median log2 fold change": -0.0728}, {"binder": "B4", "median log2 fold change": 0.0622}, {"binder": "B5", "median log2 fold change": -0.0301}, {"binder": "B6", "median log2 fold change": 0.171}, {"binder": "B7", "median log2 fold change": -0.0656}, {"binder": "B8", "median log2 fold change": -0.232}, {"binder": "B9", "median log2 fold change": -0.22}, {"binder": "B10", "median log2 fold change": 0.24}, {"binder": "B11", "median log2 fold change": -0.423}, {"binder": "B12", "median log2 fold change": -0.795}, {"binder": "B13", "median log2 fold change": 0.27}, {"binder": "B14", "median log2 fold change": -0.257}, {"binder": "B15", "median log2 fold change": 0.268}, {"binder": "B16", "median log2 fold change": 0.214}, {"binder": "B17", "median log2 fold change": 0.285}, {"binder": "B18", "median log2 fold change": 0.188}, {"binder": "B19", "median log2 fold change": 0.423}]}]}
